Source: PubChem BioAssay (NCATS)
Where “and” joins values, the source holds several entries; their conditions need not be identical. Identical values can stand only once. Inconclusive results, whose numbers are uncertain, are shown with a selection of clear calls. Potencies beside an inconclusive call are fits to weak or partial responses and may not hold up. Calls of active or inactive are those of the source. Calls come from the whole dose curve; as a rule, active = well fitted curve in the direction sought with a large enough effect; inconclusive = small, poorly fitted or top-dose-only effect, or another doubt; inactive = no such curve, though single readings can be large; an effect the other way counts as inactive or inconclusive.

Columns and labels:
[1] = P-glycoprotein substrates identified in KB-8-5-11 adenocarcinoma cell line, qHTS therapeutic library screen (AID 1346987); note: nearly all actives have a fitted effect of over 65% in size; for activity change, negative = cytotoxicity: % is set by controls: 0 for no effect and ±100 for the full control effect
Summary of the method: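 P-gp-mediated resistance screen: KB-8-5-11 cells treated 72 h with compounds in dose-response. CellTiter-Glo viability.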

[2] = Primary qHTS for inhibitors of nuclear receptor binding SET domain protein 2 (NSD2) in an isogenic RCH-ACV NSD2 p.E1099K mutant (9B) (AID 1645876); note: nearly all actives have a fitted effect of over 70% in size
[3] = Primary qHTS for inhibitors of nuclear receptor binding SET domain protein 2 (NSD2) in an RCH-ACV wild type WT cells (2C) (AID 1645877); conditions: activity change, negative = cell killing: at 44.9 µM (top of the series) unless noted; note: nearly all actives have a fitted effect of over 70% in size; for activity change, negative = cell killing: % is set by controls: 0 for no effect and ±100 for the full control effect
[4] = Primary redox qHTS assay for identification of artifact compounds. (AID 1845223); conditions: Amplex Red/HRP redox cycling with DTT, fluorescence; redox activity (% of DA3003): at 53.8 µM (top of the series);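 for redox activity (% of DA3003): 0% = DMSO and 100% = reference compound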
Summary of the method: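 Amplex Red (25 uM) and HRP (250 mU/mL) in HBSS, with compounds for 15 min, then 250 uM DTT for 30 min, room temperature, dark. Fluorescence 525/598 nm read; normalized to DMSO and 10 uM DA3003; Hill fit.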

[5] = test system: HaCat; assay: Cytotoxic Profiling of Annotated Libraries Using Quantitative High-Throughput Screening (AID 1296008); conditions: Five cell lines viability, CellTiter-Glo ATP luminescence, 48-72 h; max response: active compounds read low; note: nearly all actives have a fitted effect of over 60% in size
Summary of the method: (§1)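 Cytotoxicity was measured as CellTiter-Glo ATP luminescence, read after 10 min at room temperature. Compound treatment of the cells lasted 48 or 72 hr at 37 degrees Celsius in a qHTS format.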

[6] = test system: KB-3-1; assay: as above; conditions: Five cell lines viability, CellTiter-Glo ATP luminescence, 48-72 h; max response: active compounds read low
Summary of the method: as §1

[7] = test system: CAOV3; assay: Primary qHTS to identify gynecologic anti-cancer compounds using libraries of approved drugs and bioactive compounds (AID 1345084); conditions: Gynecologic cancer cell panel viability, ATPlite luminescence, 48 h; activity change, negative = cytotoxicity: at 57.5 µM (top of the series); note: nearly all actives have a fitted effect of over 55% in size; for activity change, negative = cytotoxicity: % is set by controls: 0 for no effect and ±100 for the full control effect
Summary of the method: (§2)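 In this quantitative HTS, cell killing is estimated from loss of ATP-dependent luciferase light. Cells see five compound concentrations over a 48 h exposure.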

[8] = test system: JEG-3; assay: as above; conditions: Gynecologic cancer cell panel viability, ATPlite luminescence, 48 h; series mostly up to 57.5 µM
Summary of the method: as §2

[9] = test system: C33A; assay: as above; conditions: Gynecologic cancer cell panel viability, ATPlite luminescence, 48 h; series mostly up to 57.5 µM
Summary of the method: as §2

[10] = test system: CASKI; assay: as above; conditions: Gynecologic cancer cell panel viability, ATPlite luminescence, 48 h; series mostly up to 57.5 µM
Summary of the method: as §2

[11] = test system: OV90; assay: as above; conditions: Gynecologic cancer cell panel viability, ATPlite luminescence, 48 h; series mostly up to 57.5 µM
Summary of the method: as §2

[12] = test system: SKOV3; assay: as above; conditions: Gynecologic cancer cell panel viability, ATPlite luminescence, 48 h; series mostly up to 57.5 µM
Summary of the method: as §2

[13] = test system: Tov-21-G; assay: as above; conditions: Gynecologic cancer cell panel viability, ATPlite luminescence, 48 h; activity change, negative = cytotoxicity: at 57.5 µM (top of the series) unless noted
Summary of the method: as §2

[14] = test system: Tov112D; assay: as above; conditions: Gynecologic cancer cell panel viability, ATPlite luminescence, 48 h; series mostly up to 57.5 µM
Summary of the method: as §2

[15] = test system: NIH3T3; assay: Cytotoxic Profiling of Annotated Libraries Using Quantitative High-Throughput Screening (AID 1296008); conditions: Five cell lines viability, CellTiter-Glo ATP luminescence, 48-72 h; max response: active compounds read low; note: nearly all actives have a fitted effect of over 60% in size
Summary of the method: as §1

[16] = test system: Es-2; assay: Primary qHTS to identify gynecologic anti-cancer compounds using libraries of approved drugs and bioactive compounds (AID 1345084); conditions: Gynecologic cancer cell panel viability, ATPlite luminescence, 48 h; series mostly up to 57.5 µM; note: nearly all actives have a fitted effect of over 55% in size; for activity change, negative = cytotoxicity: % is set by controls: 0 for no effect and ±100 for the full control effect
Summary of the method: as §2

[17] = test system: HeLa; assay: as above; conditions: Gynecologic cancer cell panel viability, ATPlite luminescence, 48 h; activity change, negative = cytotoxicity: at 57.5 µM (top of the series)
Summary of the method: as §2

[18] = test system: Hek293T; assay: as above; conditions: Gynecologic cancer cell panel viability, ATPlite luminescence, 48 h, control line for the selectivity index; activity change, negative = cytotoxicity: at 57.5 µM (top of the series) unless noted
Summary of the method: as §2

[19] = test system: PA-1; assay: as above; conditions: Gynecologic cancer cell panel viability, ATPlite luminescence, 48 h; series mostly up to 57.5 µM
Summary of the method: as §2

[20] = Primary fluorescence-based thiol-reactive (MSTI) qHTS assay for identification of artifact compounds. (AID 1845221);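 note: thiol-reactive compounds lower the probe fluorescence signal; nearly all actives have a fitted effect of over 65% in size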
Summary of the method: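 One-hour, room-temperature, dark incubation of compound with 4 uM MSTI in PBS (pH 7.4, 2% DMSO) precedes a fluorescence read at 525 nm excitation, 598 nm emission; Hill-equation fitting yields concentration-response values.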
Potency is the fitted concentration of half-maximal effect; tags give direction and shape of the fitted curve.

CCCc1[nH]nc2c1C(c1cc(Cl)cc(Cl)c1O)C(C#N)=C(N)O2 (stereo not drawn)
inactive: outcome [5] | outcome [6] | Potency [7]
inconclusive: Potency [1] 18.4 µM [inhibitor, single point] | Potency [2] 23 µM [inhibitor, single point] | Potency [3] 18.3 µM [inhibitor, single point]
active: Potency [4] 11.9 µM

CCO[C@@H]1OC(=O)C[C@@H]1NC(=O)[C@@H]1CCCN1C(=O)[C@@H](NC(=O)c1ccc(N)c(Cl)c1)C(C)(C)C
inconclusive: Potency [5] 18.4 µM [inhibitor, partial curve, poor fit] | Potency [7] 28.2 µM [rising, single point]
inactive: Potency [1] | Potency [2] | Potency [3] | max response [6] 2.91% | Potency [8]

C[C@@H]1CCNC(=O)c2cc3ccc(C(=O)Nc4nc5ccccc5n4CCCN(C)C)cc3n21
inconclusive: Potency [5] 29.1 µM [inhibitor, single point] | Potency [6] 20.6 µM [inhibitor, single point] | Potency [9] 39.8 µM [cytotoxic, single point] | Potency [10] 25.1 µM [cytotoxic, partial curve] | Potency [8] 15.8 µM [cytotoxic, partial curve] | Potency [11] 3.16 µM [cytotoxic, full curve] | Potency [12] 39.8 µM [cytotoxic, single point] | Potency [13] 20 µM [cytotoxic, partial curve, poor fit] | Potency [14] 39.8 µM [cytotoxic, single point]
active: Potency [2] 16.3 µM | Potency [3] 14.8 µM | Potency [7] 25.1 µM

O=C(c1ccc(F)cc1)N1CCC[C@H](c2nc(-c3ccc(F)cc3)no2)C1
inactive: outcome [5]
inconclusive: Potency [6] 0.148 µM [inhibitor, full curve, poor fit]

CNC(=O)c1ccc(Nc2cc(Nc3ccccc3S(=O)(=O)C(C)C)c3cc[nH]c3n2)nc1
active: Potency [5] 2.96 µM | Potency [15] 2.35 µM
inconclusive: Potency [1] 37.2 µM [inhibitor, single point]

Nc1ncnc2c1c(-c1cnc3[nH]ccc3c1)nn2C1CCCC1
active: Potency [1] 590 nM and 2.06 µM | Potency [5] 2.64 µM and 1.84 µM | Potency [15] 83.3 nM and 517 nM | Potency [10] 11.2 µM | Potency [16] 10 µM | Potency [17] 10 µM | Potency [18] 7.94 µM | Potency [11] 5.01 µM | Potency [19] 8.91 µM | Potency [13] 6.31 µM
inconclusive: Potency [9] 8.91 µM [cytotoxic, full curve, poor fit] | Potency [7] 8.91 µM [cytotoxic, partial curve, poor fit] | Potency [8] 8.91 µM [cytotoxic, full curve] | Potency [12] 7.08 µM [cytotoxic, full curve, poor fit]
inactive: Potency [4]

CC(C)C1(O)C=C2C(=O)CC3C(C)(C(=O)O)CCCC3(C)C2CC1 (stereo not drawn)
inconclusive: Potency [12] 0.112 µM [rising, full curve]
inactive: Potency [3] | outcome [5] | max response [6] -0.238%

Cc1ccc(C(=O)N(CCCN)C(c2oc3cc(Cl)ccc3c(=O)c2Cc2ccccc2)C(C)C)cc1 (stereo not drawn)
inconclusive: Potency [20] 26.7 µM [inhibitor, partial curve] | Potency [4] 4.74 µM [activator, partial curve, poor fit] | Potency [5] 0.0092 µM [inhibitor, full curve, poor fit] | Potency [15] 18.4 µM [inhibitor, partial curve, poor fit] | Potency [9] 35.5 µM [cytotoxic, single point] | Potency [7] 35.5 µM [cytotoxic, single point] | Potency [10] 39.8 µM [cytotoxic, single point] | Potency [16] 39.8 µM | Potency [17] 44.7 µM | Potency [18] 10 µM | Potency [8] 25.1 µM | Potency [19] 39.8 µM [cytotoxic, single point] | Potency [12] 39.8 µM [cytotoxic, partial curve, poor fit] | Potency [13] 50.1 µM | Potency [14] 89.1 µM

C#C[C@]1(O)CC[C@H]2[C@@H]3CCc4cc(OC5CCCC5)ccc4[C@H]3CC[C@@]21C
inactive: Potency [7]
inconclusive: Potency [1] 29.1 µM [inhibitor, single point] | Potency [3] 23.7 µM [inhibitor, partial curve, poor fit] | Potency [5] 29.9 µM [inhibitor, single point] | Potency [15] 33.5 µM [inhibitor, single point] | Potency [19] 2.82 µM | Potency [12] 39.8 µM [cytotoxic, single point]
active: Potency [11] 20 µM

C=C(C)C1CC2(CO)C(=CC1=O)CCC(O)C2C (stereo not drawn)
inconclusive: Potency [12] 22.4 µM [rising, single point]
inactive: max response [5] -2.77% | max response [6] 4.67%

CC(C)c1nc(-c2ccc(NC(=O)Nc3cccc(C(F)(F)F)c3)c3ccccc23)c2c(N)nccn12
active: Potency [5] 7.31 µM | Potency [15] 8.2 µM | Potency [7] 22.4 µM | Potency [16] 12.6 µM | Potency [17] 31.6 µM | Potency [18] 15.8 µM | Potency [11] 1.58 µM | Potency [19] 12.6 µM | Potency [12] 28.2 µM
inconclusive: Potency [1] 18.4 µM [inhibitor, single point] | Potency [20] 2.12 µM [inhibitor, partial curve] | Potency [9] 25.1 µM [cytotoxic, single point] | Potency [10] 25.1 µM [cytotoxic, single point] | Potency [13] 31.6 µM [cytotoxic, single point] | Potency [14] 35.5 µM [cytotoxic, single point]

CN(C)CCn1cc(S(=O)(=O)c2cccc(F)c2)c2cccnc21
inactive: max response [6] 1.25%
inconclusive: Potency [2] 20.5 µM [inhibitor, single point] | Potency [5] 29.1 µM [inhibitor, single point]

CCCc1cc(C)[nH]c(=O)c1CNC(=O)c1cc(-c2ccnc(N3CCN(C)CC3)c2)cc2c1cnn2C(C)C
inconclusive: Potency [1] 25.9 µM [inhibitor, single point] | Potency [4] 2.38 µM [activator, partial curve] | Potency [5] 29.1 µM [inhibitor, single point] | Potency [15] 25.9 µM [inhibitor, single point] | Potency [9] 39.8 µM [cytotoxic, single point] | Potency [7] 25.1 µM [cytotoxic, partial curve, poor fit] | Potency [10] 39.8 µM [cytotoxic, single point] | Potency [16] 31.6 µM [cytotoxic, partial curve, poor fit] | Potency [18] 25.1 µM [cytotoxic, single point] | Potency [8] 39.8 µM [cytotoxic, single point] | Potency [11] 25.1 µM [cytotoxic, single point] | Potency [12] 39.8 µM [cytotoxic, single point] | Potency [14] 39.8 µM [cytotoxic, single point]
active: Potency [17] 35.5 µM | Potency [19] 25.1 µM | Potency [13] 31.6 µM

O=c1[nH]sc2cc(Cl)ccc12
inconclusive: Potency [2] 0.299 µM [inhibitor, full curve, poor fit] | Potency [3] 0.168 µM [inhibitor, full curve, poor fit] | Potency [5] 33.5 µM [inhibitor, single point] | Potency [9] 44.7 µM [cytotoxic, partial curve, poor fit] | Potency [7] 1.78 µM | Potency [16] 0.794 µM | Potency [18] 28.2 µM | Potency [19] 3.55 µM | Potency [12] 39.8 µM [cytotoxic, partial curve, poor fit] | Potency [13] 39.8 µM [cytotoxic, partial curve, poor fit]
inactive: max response [15] -92.7%

Oc1ccc(CNc2ccccc2F)c2cccnc12
active: Potency [1] 6.51 µM | Potency [3] 4.09 µM | Potency [20] 3.77 µM | Potency [19] 17.8 µM
inconclusive: Potency [4] 11.9 µM [activator, partial curve] | Potency [5] 16.4 µM [inhibitor, partial curve, poor fit] | Potency [15] 29.1 µM [inhibitor, single point] | Potency [9] 7.94 µM [cytotoxic, full curve] | Potency [7] 11.2 µM [cytotoxic, single point] | Potency [10] 11.2 µM [cytotoxic, partial curve] | Potency [16] 39.8 µM [cytotoxic, single point] | Potency [17] 8.91 µM [cytotoxic, partial curve] | Potency [18] 25.1 µM [cytotoxic, single point] | Potency [11] 39.8 µM [cytotoxic, single point] | Potency [12] 39.8 µM [cytotoxic, single point] | Potency [13] 31.6 µM [cytotoxic, single point] | Potency [14] 12.6 µM [cytotoxic, partial curve]
